Experimental findings from PubChem BioAssay AID2060620 (Molecular Pharmacology Branch, DTP, NCI, 2025) are described below.

In general, viability, T/C refers to the ratio of treated to control. By IC50 is commonly meant the midpoint of a concentration-inhibition curve.

The assay deals with 328373-195-R-J1-PDC complex spheroids, viability % test/control. Kind of assay: Anticancer human tumor 328373-195-R-J1-PDC patient-derived head and neck squamous carcinoma cell line growth inhibition [CLK]. The following applies: for viability, T/C: stronger effect = lower value. The source says:
A high-throughput screen of multi-cell type tumor spheroids was designed to identify active combinations of […] and targeted small molecules. Complex spheroids include a stromal component modeled by human endothelial cells (HUVEC) and fibroblasts modeled by human mesenchymal stem cells (MSCs). The concentration ranges selected for each drug and investigational agent were based upon clinically achievable concentrations if the clinical Cmax of the agent was known.
Compounds. The drugs and investigational agents: cirtuvivint (SM08502; NSC835563), CC-671 (NSC850746), vemurafenib (NSC761431), tapotoclax (NSC804041), sotorasib (NSC818433), adagrasib (NSC831453), MRTX-1133 (NSC836407), BAY2416964 (NSC825713), copanlisib (NSC816437), inavolisib (NSC800729), abemaciclib (NSC768073), osimertinib (NSC779217), entinostat (NSC756642), eltanexor (KPT-8602, NSC794443), venetoclax (NSC766270), ceralasertib (NSC777638), bortezomib (NSC756655), olaparib (NSC753686), talazoparib (NSC767125), alisertib (NSC759677), peposertib (NSC802822), gemcitabine (NSC613327), 5-fluorouracil (NSC19893), SN-38 (NSC673596), oxaliplatin (NSC266046), paclitaxel (NSC125973), and doxorubicin (NSC123127), were obtained from the National Cancer Institute (NCI) Developmental Therapeutics Program Chemical Repository. The FDA-approved anticancer drug set is available from the Developmental Therapeutics Program at https://dtp.cancer.gov/organization/dscb/obtaining/available plates.htm. […] The stock solutions were prepared in dimethyl sulfoxide (DMSO, Sigma-Aldrich, St. Louis, MO, cat. D2650), except for the platinum complexes which were prepared in saline (Quality Biological, Gaithersburg, MD, cat. 114-055-101), at 800-fold the tested concentration and stored at -70 degrees C prior to their use. All drugs and investigational agents were tested over a range starting from a high concentration at or near the clinical Cmax and decreasing in half-log increments. If the clinical Cmax for an agent had not been determined, the highest concentration tested was 10 microM.
Cell Culture. […]

Each structure is given as a SMILES string. Some entries of the source have several records that differ or are many. They are shown here; other results are not. There may be further records. Values given together are repeated measurements across runs, samples, wells, individuals or studies.
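Also: spheroids exposed to the agents for 7 days.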

Turning to `CNC(=O)c1ccc(Nc2nc(OC3CCCC3)c3c(-c4ccc5nc(C)oc5c4)c[nH]c3n2)c(OC)c1`, the viability, T/C (compound alone 0.0316 µM) was 51.8, 47.5, 67.8, 75.1, 55.5, 58.5, 60, 64.7, 62.7, 57.6, 72.7, 66.7%. For the same molecule, the IC50 (compound alone, run of 08/15/2023) is 45.4 nM, 38.2 nM, 33.3 nM, < 31.6 nM, 49.8 nM, 36.6 nM, 39.2 nM, 40 nM, 43.7 nM, 42.4 nM, 48.4 nM, 45.6 nM.
Consider `COC1C=CCC(C)C(C)S(=O)(=O)NC(=O)c2ccc3c(c2)N(CC2CCC21)CC1(CCCc2cc(Cl)ccc21)CO3` (stereo not drawn), for which, under “compound alone 10 µM”, the viability, T/C was 45.4% and 2.48%.
